Data on 98 compounds can be found in PubChem BioAssay AID1159614 (National Center for Advancing Translational Sciences (NCATS), 2016).

Out of some 45,000 compounds screened, about 65 (0.1%) were called active. Calls follow the shape of the dose curve; as a rule, active = well fitted activation curve with a large enough effect; inconclusive = small, poorly fitted or top-dose-only effect; inactive = no such curve, though single readings can be large or run the other way. Some of the results follow.

UniProt P54803, sequence (P54803 whole entry, looked up): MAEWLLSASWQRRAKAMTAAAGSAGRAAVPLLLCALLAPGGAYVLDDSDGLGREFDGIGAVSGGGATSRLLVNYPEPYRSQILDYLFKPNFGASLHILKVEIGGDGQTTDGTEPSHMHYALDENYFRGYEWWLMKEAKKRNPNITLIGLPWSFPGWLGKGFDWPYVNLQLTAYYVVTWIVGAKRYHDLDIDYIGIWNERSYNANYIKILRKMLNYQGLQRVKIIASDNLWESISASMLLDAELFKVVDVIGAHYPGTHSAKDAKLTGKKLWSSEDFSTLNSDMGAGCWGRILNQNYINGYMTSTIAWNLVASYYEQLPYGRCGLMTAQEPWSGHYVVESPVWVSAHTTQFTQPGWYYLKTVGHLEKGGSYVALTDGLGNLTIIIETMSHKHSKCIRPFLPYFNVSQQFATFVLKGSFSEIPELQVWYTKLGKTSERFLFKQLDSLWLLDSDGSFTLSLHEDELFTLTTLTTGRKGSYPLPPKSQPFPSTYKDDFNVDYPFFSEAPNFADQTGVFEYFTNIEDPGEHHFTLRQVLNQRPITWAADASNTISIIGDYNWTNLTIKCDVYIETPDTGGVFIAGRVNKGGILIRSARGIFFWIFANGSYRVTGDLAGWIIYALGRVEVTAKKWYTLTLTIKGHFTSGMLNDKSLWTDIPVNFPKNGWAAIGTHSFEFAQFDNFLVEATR

This experiment deals with Galactocerebrosidase (Homo sapiens) (UniProt P54803). As to the kind of experiment: A Novel Cell-Based Assay to Identify Small Molecules for B -Galactocerebrosidase. Also: 0% is about no effect; nearly all actives have a fitted effect of over 65% in size. As to conditions: 145M-Twi-hGALC-G270D cells (Twitcher mouse brain line with human GALC G270D), HMU-beta-Gal fluorescence, 48 h; series mostly up to 57.5 µM; activation: at the top concentration. The method in brief:
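Brain-derived Twitcher mouse 145M-Twi cells stably expressing human GALC-G270D or wild-type GALC, treated live, then residual GALC activity read by fluorescence of HMU-b-Gal substrate (0.1 mM final) in citrate-phosphate buffer pH 5.2 with sodium taurocholate. Signal increase indicates enhancement.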
Take `CCOC(=O)COc1ccc2c(C)c(CCN(CC)CC)c(=O)oc2c1Cl`: the “activation” value is inactive: -13.4%. For the compound `Cc1ccccc1-c1nc(SCC(=O)NCc2ccco2)c2c(=O)n(C)c(=O)n(C)c2n1`, the “activation” value is inactive: -19.9%. The same measure for `Cc1ccc(CCNC(=O)CS(=O)Cc2nc(-c3ccccc3C)oc2C)cc1` (stereo not drawn): inactive: -14.3%; for `CCN(Cc1ccccc1)C(=O)Cn1c(=O)n(-c2ccc(Cl)cc2)c(=O)c2c(C)c(C(=O)N(C)C)sc21`: inactive: -3.47%; for `CCCCN(C)S(=O)(=O)c1ccc(C(=O)Nc2sc3c(c2C(N)=O)CC(C)(C)NC3(C)C)cc1`: inactive: -23.2%.

Consider `CCCc1ccc(-c2ccc(C(=O)Oc3ccc(OCC)cc3)cc2)nc1`, for which the “activation” value is inactive: 4.72%. Consider `CCCc1ncc(C(=O)O)s1`, for which the “activation” value was inactive: -6.1%.

As to `O=C(Cn1ncc2c3ccccc3n(Cc3cccc(Cl)c3)c2c1=O)NCc1cccs1`, the “activation” value was inactive: -10.9%. In the case of `CCc1ccc(OCc2nc(-c3ccc(OC)cc3)no2)c(Br)c1`, the “activation” value is inactive: -9.67%. In the case of `O=C(Cn1cnc2c(oc3ccccc32)c1=O)Nc1ccc(F)cc1F`, the “activation” value is inactive: -17.1%. Take `O=C(CSc1nc2c(oc3ccccc32)c(=O)n1Cc1ccco1)Nc1ccccc1Cl`: the “activation” value is inactive: -4.11%. Take `O=S(=O)(c1ccc2nc(NCc3ccccc3Cl)ccc2c1)N1CCCCC1`: the “activation” value was inactive: -17%. As for `O=C(Nc1nc2ccccc2s1)c1ccc(S(=O)(=O)N2CCCC2)cc1`, the “activation” value is inactive: -6.69%. As to `CC(CNC(=O)c1ccc(CSc2nc3ccncc3n2Cc2ccccc2)cc1)c1ccccc1` (stereo not drawn), the “activation” value is inactive: 4.74%. The figure for `COc1ccc(CNC(=O)CSc2nc(-c3ccc(OC)c(OC)c3)cc(C(F)(F)F)n2)cc1` is inactive: -9.17%; for `COc1cc(Cl)c(NS(=O)(=O)c2ccc(-c3cnc(C4CC4)o3)cc2)c(OC)c1` it is inactive: -20%; for `CCS(=O)(=O)c1nc(S(=O)(=O)c2ccc(C)cc2)c(NCCCOC)s1` it is inactive: -16.6%.

In the case of `CCOC(=O)c1cc(S(=O)(=O)N2CCN(c3ccc(C(C)=O)cc3)CC2)[nH]n1`, the “activation” value was inactive: 14.9%. For the compound `CCCC12CN3CC(CCC)(CN(C1)C3c1ccccc1)C2=O` (stereo not drawn), the “activation” value is inactive: -17.6%.

In the case of `CCOC(=O)c1ccc(NC(=O)NCCOCCn2c(=O)oc3ccccc32)cc1`, the “activation” value was inactive: -7.37%. As to `COc1ccccc1NC(=O)C1CCN(C(=O)c2sc3nc[nH]c(=O)c3c2C)CC1`, the “activation” value was inactive: -30%. In the case of `O=C(Nc1ccccc1Br)C(Cc1ccccc1)NS(=O)(=O)c1cccc2nsnc12` (stereo not drawn), the “activation” value is inactive: -14.2%.

Regarding `CCN(CC)CCNC(=O)c1ccc2nc(CCc3ccccc3)oc2c1`, the “activation” value was inactive: -9.6%. For `CC(=O)c1ccc(NC(=O)c2ccc(-c3ccc(Cl)cc3)o2)cc1`, the “activation” value was inactive: 15.2%.

With `CCn1c(CNC(=O)c2ccc(OC)cc2)nnc1SCC(=O)Nc1ccc(C)cc1`, the “activation” value was inactive: 2.13%. The same measure for `Cc1cc2oc3c(c(=O)c2cc1C)C1(C(=O)N(C)c2ccccc21)N(CCO)C3=O` (stereo not drawn): inactive: -1.74%. With `COc1ccc(N2CC(NC(=O)c3ccco3)CC2=O)cc1` (stereo not drawn), the “activation” value was inactive: -7.58%.

Turning to `Nc1cc(=O)nc(SCC(=O)Nc2ccc(F)cc2)n1CCc1ccccc1`, the “activation” value was inactive: -16.4%. The same measure for `CCc1cccc(C)c1NC(=O)Cn1c(=O)cc(C)c2c(C)nn(-c3cccc(F)c3)c21`: inactive: -0.317%; for `Cc1cccc(CCNC(=O)CCc2c(C)nc3c4c(C)cc(C)nc4nn3c2C)c1`: inactive: 3.66%. As to `COc1ccc(CNC(=O)Cn2ncc3c([nH]c4ccccc43)c2=O)cc1`, the “activation” value is inactive: -11.2%. The same measure for `O=C(NCc1ccc(F)cc1)c1ccc(Nc2nc3ccccc3n3nnnc23)cc1`: inactive: -15.4%; for `COc1ccccc1N1CCN(c2cc(C)nc3nc(-c4ccc(C)cc4)nn23)CC1`: inactive: -5.77%.

Take `Cc1c(C(=O)Nc2ccccc2F)sc2ncnc(N(C)C3CCCCC3)c12`: the “activation” value was inactive: 1.6%.

For the compound `COc1cc(OC)c(NC(=O)c2cc(C)nc3c2c(C)nn3-c2ccc(C)cc2)cc1Cl`, the “activation” value is inactive: -4.41%. As to `COc1ccc(CCNC(=O)c2ccc3c(c2)N(Cc2ccc(Cl)cc2)C(=O)c2ccccc2S3)cc1OC`, the “activation” value is inactive: -1.6%. `CCOc1ccc(-c2nn(CC(=O)NC3CCCC3)c3c2cnc2ccc(C)cc23)cc1`: the “activation” value was inactive: -24%. As to `Cc1ccc(NC(=O)CCN2CCN(CCO)CC2)cc1C`, the “activation” value is inactive: -7.92%. Turning to `Cc1ccc(S(=O)(=O)CC(=O)Nc2sc3c(c2C(N)=O)CCCC3)cc1`, the “activation” value was inactive: -20%. The figure for `Cc1ccccc1Nc1c(-c2ccc(Br)o2)nc2ccc(Cl)cn12` is inactive: -13.2%; for `CCc1ccc(NC(=O)Cc2c(C(=O)O)c(C)cn2C)cc1` it is inactive: -5.1%; for `CC(C)CCNC(=O)Nc1ccc2c(c1)N(Cc1ccccc1)C(=O)c1ccccc1S2` it is inactive: 5.02%.

Regarding `CC(=O)c1ccc(NC(=O)Cn2c(-n3nc(C)cc3C)nc(C)c(C)c2=O)cc1`, the “activation” value was inactive: -12.1%.

For `CCOC(=O)Cc1ccc(NC(=O)N2CCC(CN3CCCCCC3)CC2)cc1`, the “activation” value is inactive: -15.3%. The same measure for `CCN(CC)c1cc2c(cc1F)c(=O)c(S(=O)(=O)c1ccc(OC)cc1)cn2Cc1ccccc1`: inactive: -13.6%; for `CCOc1ccccc1Nc1nnc(-c2cc3cc(OC)ccc3oc2=O)s1`: inactive: -13.6%. In the case of `CCCCN(CC)C(=O)c1cc2c(=O)n3cccc(C)c3nc2n1C`, the “activation” value is inactive: 1.84%. Turning to `CCc1ccc(Oc2c(C(F)(F)F)oc3c(CN4CCC(C)CC4)c(O)ccc3c2=O)cc1`, the “activation” value is inactive: -19.9%.

For `CCN(Cc1nc(-c2ccc(OC)cc2)oc1C)S(=O)(=O)c1ccc(C)cc1`, the “activation” value is inactive: -0.795%. The figure for `Cc1ccc(NC(=O)CN2CCSc3ccc(S(=O)(=O)N4CCCC4)cc32)cc1` is inactive: -35.6%; for `Cc1c(CCNC(=O)c2ccco2)sc2nc(-c3ccc(F)cc3)nn12` it is inactive: -5.16%.

Take `CCOc1ccc(S(=O)(=O)N(CC(=O)NCc2ccccc2OC)c2ccccc2)cc1`: the “activation” value was inactive: -9.22%. For the compound `CCCCN(CC)CCCNC(=O)Cn1ncc2c3ccccc3n(C)c2c1=O`, the “activation” value is inactive: 1.12%. Take `COc1cccc(CSc2nc3n(n2)C(CC(C)C)C(C(=O)Nc2ccccc2OC)=C(C)N3)c1` (stereo not drawn): the “activation” value is inactive: 3.27%. `COc1ccc(C(=O)N2CCC(C(=O)Nc3ccc(Cl)cc3)CC2)cc1`: the “activation” value is inactive: -10.9%. The figure for `Cc1ccc(/C(=C\CN2CCCC2)c2ccccn2)cc1` is inactive: -10.6%. With `CCOc1ccc(OCC)c(NC(=O)Cn2nc(CC)n3c(cc4sccc43)c2=O)c1`, the “activation” value is inactive: -16.1%. The same measure for `Cc1cc(=O)n2nc(N(C)CC(=O)NCc3cccc(Br)c3)sc2n1`: inactive: -17.5%; for `CC(C)CCn1c(=O)c2sccc2n2c(CCCC(=O)NCCc3ccccc3)nnc12`: inactive: -16.5%. As for `O=C1CC(c2ccccc2)c2c(n3ncnc3[nH]c2=O)N1` (stereo not drawn), the “activation” value was inactive: -11.3%. The figure for `CCc1cccc(NC(=O)Cn2c(=O)n(CC(=O)NCCc3ccccc3)c(=O)c3ccccc32)c1` is inactive: -0.388%; for `Cc1nc2ccc(S(=O)(=O)N(CC(=O)Nc3cccc(F)c3)Cc3ccccc3)cc2s1` it is inactive: -5.66%. For `COc1ccc(NC(=O)Cn2c(SCc3ccc(F)cc3)nc3cccnc32)cc1OC`, the “activation” value is inactive: -9.64%.

As for `CC(C)N(C)C1CCN(S(=O)(=O)c2ccc3[nH]c(=O)ccc3c2)CC1`, the “activation” value is inactive: -15%.

As for `OC[C@H]1O[C@@H](OCCc2ccc(O)cc2)[C@H](O)[C@@H](O)[C@H]1O`, the “activation” value was inactive: -2.67%.

Regarding `COc1ccccc1C(=O)N1CCC(c2noc(-c3ccc(S(=O)(=O)N4CCCC4)cc3)n2)CC1`, the “activation” value was inactive: -16.9%. The figure for `COc1cccc(CNC(=O)c2oc3c(c2C)-c2nn(Cc4cccc(Cl)c4)cc2CC3)c1OC` is inactive: -10.9%. For the compound `C[C@@H](O)[C@H](N)C(=O)O`, the “activation” value is inactive: -9.57% [at 23.8 µM].

With `O=C(NCCc1ccc(Cl)cc1)c1ccc(CS(=O)Cc2ccccc2Cl)o1` (stereo not drawn), the “activation” value was inactive: -14.7%. Take `Cc1ccc(C)c(CNC(=O)CCn2cccn2)c1`: the “activation” value is inactive: -34.5%.

For `O=C(Nc1ccc2nc(SCC(=O)N3CCCC3)sc2c1)c1cccc(Br)c1`, the “activation” value was inactive: -2.93%. As for `Cc1cc(C)cc(N2C(=O)CSC23C(=O)N(CC(=O)Nc2ccc(F)cc2F)c2ccccc23)c1` (stereo not drawn), the “activation” value was inactive: -19%. The same measure for `Cc1cccc(NC(=O)C2CCN(c3nc4ccccc4[nH]3)CC2)c1C`: inactive: 5.44%. `CCCCc1nn2c(=O)cc(COC(=O)c3ccc(NC(=O)CCc4ccccc4)cc3)nc2s1`: the “activation” value is inactive: -16.4%. As to `CCOCCCN1C(=O)c2[nH]nc(-c3ccccc3O)c2C1c1ccc(CC)cc1` (stereo not drawn), the “activation” value is inactive: -20%. In the case of `CCOC(=O)c1oc2c(c1C)-c1nn(Cc3c(F)cccc3Cl)cc1CC2`, the “activation” value was inactive: -10.2%. The same measure for `COc1ccccc1NC(=O)c1ccc2oc(=O)c(S(=O)(=O)c3ccccc3)cc2c1`: inactive: -19.9%; for `COc1ccc(C(=O)NCCn2cc(SCc3cc(C)ccc3C)c3ccccc32)cc1`: inactive: 10.2%; for `Cc1ccc(C(C)C)c(OCCCn2c(=O)oc3ccccc32)c1`: inactive: -3.88%. The same measure for `CC(CNS(=O)(=O)c1ccc2c(c1)CC(=O)N2C)c1ccccc1` (stereo not drawn): inactive: -18.1%; for `CCOC(=O)c1c(C)oc2nc(C)nc(NCCCN3CCN(c4ccc(F)cc4)CC3)c12`: inactive: -15.1%; for `CCOc1ccc(C2c3c(oc4ccccc4c3=O)C(=O)N2c2nnc(C)s2)cc1OC` (stereo not drawn): inactive: -36.1%.

As for `Cc1ccccc1CNC(=O)c1cc2cc(S(=O)(=O)N3CCCCC3)ccc2n1C`, the “activation” value is inactive: -3.34%.

For `COc1ccc(-n2c(-c3ccco3)nc3c(cnn3-c3ccccc3C)c2=O)cc1`, the “activation” value was inactive: 9.94%. The same measure for `Cc1cc(N2CCN(c3cccc(C)c3C)CC2)n2nc(C)c(-c3ccc(Cl)cc3)c2n1`: inactive: 0.402%; for `Cc1ccc(S(=O)(=O)n2nc(-c3ccco3)nc2NCc2ccccc2Cl)cc1`: inactive: -30.4%. The same measure for `CCn1c(=O)cc(OCC(=O)N2CCN(c3ccccc3OC)CC2)c2ccccc21`: inactive: -20.9%; for `Cc1cccc(Cn2cnc3c(cnn3-c3ccc(Cl)cc3)c2=O)c1`: inactive: -9.53%; for `Cc1cc(C)n2c(Nc3ccccc3)c(-c3ccccc3)nc2n1`: inactive: -12.4%. For the compound `Cc1ccc(CN2CCN(C3CCN(C(=O)Nc4ccccc4C(F)(F)F)CC3)C(=O)C2=O)cc1`, the “activation” value is inactive: -6.33%. The same measure for `Cc1cc(C)c2oc(C(=O)Nc3ccc(S(=O)(=O)N4CCC(C)CC4)cc3)cc(=O)c2c1`: inactive: -8.05%; for `COc1ccc(Cl)cc1NC(=O)Cn1cnc2c1c(=O)n(C)c(=O)n2C`: inactive: -17.4%; for `Cc1ccc(CNC(=O)CCCn2c(=O)c3ccccc3n(Cc3ccccc3C)c2=O)cc1`: inactive: -4.66%. In the case of `CC(NC(=O)c1ccc2c(c1)N(Cc1ccc(Cl)cc1)C(=O)c1ccccc1S2=O)c1ccccc1` (stereo not drawn), the “activation” value is inactive: 4.84%. `CC(C)NC(=O)C1CCCN(c2ncnc3c2nc2n3CCCCC2)C1` (stereo not drawn): the “activation” value was inactive: -39.8%. For the compound `COc1cccc(NC(=O)C2CCN(c3nc4ccccc4nc3C(F)(F)F)CC2)c1`, the “activation” value is inactive: -19.1%. The figure for `Cc1cccc(C)c1NC(=O)CCCN1C(=O)CCn2nc(-c3cn(C)c4ccccc34)cc21` is inactive: -14.5%. Consider `Cc1cccc(Cn2nnc(C(=O)Nc3cc(C)ccc3C)c2N)c1`, for which the “activation” value was inactive: -20%.
